According to PubChem BioAssay (NCI):
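Cells were grown in 96-well plates and exposed to each compound for 48 hours at five concentrations; endpoints were interpolated linearly between bracketing concentrations, or set to the highest concentration if not reached. At the TGI there is no net growth.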 A number of entries come with more than one value. Only these are listed. The source may hold further records. Records of one sample usually come from different ranges of test concentrations, not given here; a value can be the end of its range.

Key:
Experiment in all cases: NCI-60 cell line screen, 48 h
[1] = test system: MOLT-4 leukemia
[2] = test system: BT-549 breast
[3] = test system: HT29 colon
[4] = test system: MALME-3M melanoma
[5] = test system: OVCAR-3 ovarian
[6] = test system: CCRF-CEM leukemia
[7] = test system: T-47D breast
[8] = test system: RXF 393 renal
[9] = test system: NCI-H522 lung
[10] = test system: CAKI-1 renal
[11] = test system: RPMI-8226 leukemia
[12] = test system: UACC-62 melanoma
[13] = test system: LOX IMVI melanoma
[14] = test system: PC-3 prostate
[15] = test system: IGROV1 ovarian
[16] = test system: NCI-H460 lung
[17] = test system: SN12C renal
[18] = test system: HCC-2998 colon
[19] = test system: SNB-75 CNS
[20] = test system: UACC-257 melanoma
[21] = test system: ACHN renal
[22] = test system: NCI-H226 lung
[23] = test system: NCI-H23 lung
[24] = test system: SNB-19 CNS
[25] = test system: SK-MEL-2 melanoma
[26] = test system: SW-620 colon
[27] = test system: HCT-116 colon
[28] = test system: SF-539 CNS

CC(=O)O[C@H]1C(=O)[C@@]2(C)[C@H]([C@H](OC(=O)c3ccccc3)[C@]3(O)C[C@H](OC(=O)[C@H](O)[C@@H](NC(=O)c4ccccc4)c4ccccc4)C(C)=C1C3(C)C)[C@]1(OC(C)=O)CO[C@@H]1C[C@@H]2O
TGI [1]: 948 nM [mean of 17 tests] and 375 nM, > 59.5 µM [mean of 2 tests] and 7.23 µM [mean of 25 tests] and 72.9 µM [mean of 8 tests] | TGI [2]: 783 nM, 540 nM, 1.19 µM, 474 nM, 15.2 µM | TGI [3]: 167 nM, 55.4 nM, 749 nM, 527 nM, 12.9 µM, 30.8 µM | TGI [4]: 912 nM, 3.98 µM, 6.12 µM, 64.2 µM | TGI [5]: 9.72 nM, 32.1 nM [1 test] and 154 nM [mean of 16 tests] and 1.98 µM [mean of 2 tests] and 44.9 nM [mean of 24 tests] and 15 µM [mean of 4 tests] | TGI [6]: 589 nM, 242 nM, 9.35 µM, > 100 µM, 7.08 µM | TGI [7]: 88.9 µM [1 test] and 909 nM [mean of 15 tests] and 25 µM [mean of 17 tests] and 616 nM [mean of 2 tests] and 60.8 µM [mean of 8 tests] | TGI [8]: 465 nM, 440 nM, 74.3 nM, 821 nM, 12.7 µM, 933 nM | TGI [9]: 7.59 nM [1 test] and 90.8 nM [mean of 13 tests] and 1.2 µM [mean of 15 tests] and 0.145 nM [mean of 2 tests] and 1.53 µM [mean of 5 tests] | TGI [10]: 1.67 µM, 13.3 µM, 98.4 µM | TGI [11]: 499 nM, 111 nM, 2.02 µM, > 100 µM, 10.9 µM | TGI [12]: 990 nM, 760 nM, 9.95 µM, 20.8 µM, 38.9 µM | TGI [13]: 787 nM, 14.3 µM, 21.7 µM, 22.4 µM | TGI [14]: 794 nM, 195 nM, 2.78 µM, 11.8 µM, > 100 µM, 31.5 µM | TGI [15]: 670 nM, 2.87 µM, 16.3 µM, 65.1 µM, > 84.4 µM | TGI [16]: 867 nM, 1.36 µM, 21 µM, 12 µM, 39.5 µM | TGI [17]: 953 nM, 1.3 µM, 17.4 µM, 82.8 µM, > 83.3 µM | TGI [18]: 151 nM, 4.66 nM, 230 nM, 16.8 µM, 2.97 µM | TGI [19]: 11 nM [1 test] and 98.2 nM [mean of 15 tests] and 240 nM, 700 nM [mean of 2 tests] and 95.9 nM [mean of 20 tests] and 225 nM [mean of 4 tests] | TGI [20]: 52.1 nM [1 test] and 20.3 µM [mean of 12 tests] and 825 nM [mean of 18 tests] and 441 nM, 40.9 µM [mean of 2 tests] and 53.8 µM [mean of 5 tests] | TGI [21]: 4.27 µM [mean of 2 tests] and 15.7 µM [mean of 20 tests] and 47.8 µM [mean of 7 tests] | TGI [22]: 25.4 µM [1 test] and 642 nM [mean of 16 tests] and 7.19 µM [mean of 18 tests] and 545 nM [mean of 2 tests] and 16.6 µM [mean of 6 tests] | TGI [23]: 782 nM, 1.65 µM, 2.81 µM, 43.8 µM | TGI [24]: 785 nM, 851 nM, 22.1 µM, > 100 µM, > 82.8 µM | TGI [25]: 2.59 nM [1 test] and 394 nM, 9.02 µM [mean of 14 tests] and 681 nM [mean of 2 tests] | TGI [26]: 748 nM, 22.7 µM, > 69 µM, > 100 µM | TGI [27]: 704 nM, 127 nM, 606 nM, 18.4 µM, 15.1 µM, 33.3 µM | TGI [28]: 76.9 nM, 4.48 nM, 25.2 nM, 59.3 nM, > 100 µM, 36.9 nM
